{
  "source": "the supplement of paper PMC3334620",
  "note": "Whole data set: some 33,000 sequences, median “E-score (-0.5 to 0.5)” near -0.053, cut for the highest 2% near 0.37. The list shows a part of the results.",
  "data": [
    {"molecular_target": "Hap1 (UniProt P0CE41)", "sequence (P0CE41 whole entry, the tested form may be a part)": "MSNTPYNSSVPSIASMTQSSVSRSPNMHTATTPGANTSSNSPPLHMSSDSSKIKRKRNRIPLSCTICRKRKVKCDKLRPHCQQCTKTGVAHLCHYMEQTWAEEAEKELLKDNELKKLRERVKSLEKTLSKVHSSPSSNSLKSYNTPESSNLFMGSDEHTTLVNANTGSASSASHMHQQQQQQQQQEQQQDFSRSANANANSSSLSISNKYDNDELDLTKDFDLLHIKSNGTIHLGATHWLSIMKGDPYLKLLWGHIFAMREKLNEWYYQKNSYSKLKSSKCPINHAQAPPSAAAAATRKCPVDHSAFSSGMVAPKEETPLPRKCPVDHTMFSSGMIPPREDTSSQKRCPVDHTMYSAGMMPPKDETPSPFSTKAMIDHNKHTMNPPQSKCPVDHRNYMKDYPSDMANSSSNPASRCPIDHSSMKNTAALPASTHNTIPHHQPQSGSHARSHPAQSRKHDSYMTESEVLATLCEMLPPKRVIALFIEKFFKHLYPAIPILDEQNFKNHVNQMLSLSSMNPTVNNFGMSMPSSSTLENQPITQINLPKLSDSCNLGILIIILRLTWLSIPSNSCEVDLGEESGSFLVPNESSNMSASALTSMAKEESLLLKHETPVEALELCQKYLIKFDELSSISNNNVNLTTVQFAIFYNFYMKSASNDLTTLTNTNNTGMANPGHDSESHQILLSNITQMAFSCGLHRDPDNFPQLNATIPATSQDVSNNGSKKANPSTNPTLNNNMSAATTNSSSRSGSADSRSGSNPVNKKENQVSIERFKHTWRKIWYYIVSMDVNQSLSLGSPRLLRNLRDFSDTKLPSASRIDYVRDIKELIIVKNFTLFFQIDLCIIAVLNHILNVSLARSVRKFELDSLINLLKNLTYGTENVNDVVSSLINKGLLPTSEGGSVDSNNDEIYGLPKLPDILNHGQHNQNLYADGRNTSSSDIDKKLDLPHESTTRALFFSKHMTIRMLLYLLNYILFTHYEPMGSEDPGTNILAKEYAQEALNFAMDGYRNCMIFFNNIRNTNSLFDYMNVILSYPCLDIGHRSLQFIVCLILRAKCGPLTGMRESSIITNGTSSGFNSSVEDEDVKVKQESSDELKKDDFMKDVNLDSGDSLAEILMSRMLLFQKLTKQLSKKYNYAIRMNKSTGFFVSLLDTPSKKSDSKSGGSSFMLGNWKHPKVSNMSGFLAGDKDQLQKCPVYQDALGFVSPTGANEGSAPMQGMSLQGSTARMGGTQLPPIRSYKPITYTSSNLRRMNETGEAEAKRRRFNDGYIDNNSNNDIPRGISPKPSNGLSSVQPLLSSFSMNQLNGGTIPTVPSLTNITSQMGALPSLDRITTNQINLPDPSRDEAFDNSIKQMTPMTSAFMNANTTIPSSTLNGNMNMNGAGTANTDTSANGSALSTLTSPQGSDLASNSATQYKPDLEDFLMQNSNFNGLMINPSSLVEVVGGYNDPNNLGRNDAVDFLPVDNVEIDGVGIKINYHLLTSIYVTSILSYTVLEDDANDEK", "assay": "PBM E-score (8-mer binding enrichment) (E-score (-0.5 to 0.5)); higher = stronger / more preferred TF binding; most listed sequences are background and not binding sites", "conditions": "protein concentration: 200 nM; construct: GST-DNA-binding domain", "method_in_brief": "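Full-length yeast transcription factors or their DNA-binding domains, GST-tagged and expressed with PURExpress, were applied at about 100-200 nM to universal all-10-mer Agilent arrays. These arrays had been made double-stranded by primer extension on fresh or once-stripped slides. Detection used fluorescent anti-GST, normalisation used masliner, and E-scores for ungapped eight-base words pooled with reverse complements came from the Universal PBM Analysis Suite.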", "values": [
      {"sequence": "CGTCCTCC", "PBM E-score": 0.105},
      {"sequence": "CGTTATGA", "PBM E-score": 0.0887},
      {"sequence": "AGAGTCGA", "PBM E-score": -0.148},
      {"sequence": "CTGACGAA", "PBM E-score": -0.0966},
      {"sequence": "ATGGGATC", "PBM E-score": -0.013},
      {"sequence": "CCCCACCA", "PBM E-score": -0.135},
      {"sequence": "GACGCTAA", "PBM E-score": -0.0683},
      {"sequence": "GCACTGCA", "PBM E-score": -0.163},
      {"sequence": "AGTTGATA", "PBM E-score": -0.017},
      {"sequence": "AGTCACTC", "PBM E-score": -0.137},
      {"sequence": "GACTCACA", "PBM E-score": -0.203},
      {"sequence": "CTGAACAG", "PBM E-score": -0.123},
      {"sequence": "ACGCGAAA", "PBM E-score": -0.00838},
      {"sequence": "CTCGATCA", "PBM E-score": -0.0634},
      {"sequence": "ACAGGGCA", "PBM E-score": -0.242},
      {"sequence": "GTCTTATA", "PBM E-score": -0.121},
      {"sequence": "GGTATTCA", "PBM E-score": 0.0336},
      {"sequence": "AGCACTCC", "PBM E-score": -0.00182},
      {"sequence": "CACCTGTC", "PBM E-score": 0.109},
      {"sequence": "CAGATAAG", "PBM E-score": -0.108},
      {"sequence": "CTGGAACA", "PBM E-score": -0.129},
      {"sequence": "GCGCTGCA", "PBM E-score": -0.132},
      {"sequence": "GTCCCGCA", "PBM E-score": 0.124},
      {"sequence": "CGCGCTGC", "PBM E-score": -0.0325},
      {"sequence": "CCCGCTGC", "PBM E-score": 0.139},
      {"sequence": "GCAGGCGC", "PBM E-score": -0.0527},
      {"sequence": "ATTCGAAC", "PBM E-score": -0.191},
      {"sequence": "GCGCACGC", "PBM E-score": 0.0699},
      {"sequence": "TGGATGAA", "PBM E-score": -0.183},
      {"sequence": "CGCCCCCG", "PBM E-score": 0.237},
      {"sequence": "ACTTACGC", "PBM E-score": 0.196},
      {"sequence": "GACTCTGA", "PBM E-score": -0.083},
      {"sequence": "GTCGGGGA", "PBM E-score": 0.301},
      {"sequence": "AAGGCCCC", "PBM E-score": -0.0358},
      {"sequence": "ACTGTGTC", "PBM E-score": -0.0909},
      {"sequence": "AATTAGGG", "PBM E-score": 0.0466},
      {"sequence": "ACGAACAA", "PBM E-score": 0.111},
      {"sequence": "AGTGTAAC", "PBM E-score": -0.13},
      {"sequence": "CACGCACA", "PBM E-score": 0.0064},
      {"sequence": "GCCACACA", "PBM E-score": 0.0335},
      {"sequence": "GAAGAATA", "PBM E-score": -0.237},
      {"sequence": "CGGGGACG", "PBM E-score": 0.163},
      {"sequence": "AGGGAGCC", "PBM E-score": -0.167},
      {"sequence": "ACAATCAC", "PBM E-score": -0.0371},
      {"sequence": "CTGGCTAA", "PBM E-score": -0.183},
      {"sequence": "CAATGGTA", "PBM E-score": -0.146},
      {"sequence": "GACAATTA", "PBM E-score": 0.00249},
      {"sequence": "ACGAGGCG", "PBM E-score": -0.00909},
      {"sequence": "CCGAGGAG", "PBM E-score": 0.349},
      {"sequence": "CGGAGTAG", "PBM E-score": 0.324},
      {"sequence": "AGATAGCT", "PBM E-score": 0.0583},
      {"sequence": "AGTGTTTC", "PBM E-score": -0.205},
      {"sequence": "TGCTCACA", "PBM E-score": -0.342},
      {"sequence": "AGTTGAAC", "PBM E-score": -0.195},
      {"sequence": "ATACTCGG", "PBM E-score": 0.264},
      {"sequence": "AAGAATAC", "PBM E-score": -0.137},
      {"sequence": "CACGAACA", "PBM E-score": -0.113},
      {"sequence": "TCCTGGCA", "PBM E-score": -0.0869},
      {"sequence": "ATGTTTGA", "PBM E-score": -0.203},
      {"sequence": "GCGCTCCC", "PBM E-score": -0.254},
      {"sequence": "CGCCGGGA", "PBM E-score": 0.317},
      {"sequence": "CATGTATA", "PBM E-score": -0.235},
      {"sequence": "ATAACGTA", "PBM E-score": 0.175},
      {"sequence": "ATGCTGTG", "PBM E-score": -0.227},
      {"sequence": "TAAGAGCA", "PBM E-score": -0.077},
      {"sequence": "GCGAATCA", "PBM E-score": 0.077},
      {"sequence": "GCTTAGAC", "PBM E-score": -0.0848},
      {"sequence": "CCAAGGCC", "PBM E-score": -0.18},
      {"sequence": "ATGAGTGG", "PBM E-score": -0.152},
      {"sequence": "ACGCGCAT", "PBM E-score": -0.0842},
      {"sequence": "CAATAAAG", "PBM E-score": -0.0152},
      {"sequence": "CCCCTGGA", "PBM E-score": -0.205},
      {"sequence": "AGATATCC", "PBM E-score": 0.192},
      {"sequence": "AAATGATT", "PBM E-score": 0.194},
      {"sequence": "ATGTCAGA", "PBM E-score": -0.277},
      {"sequence": "CTACTGGA", "PBM E-score": 0.0203},
      {"sequence": "TCCGTGAA", "PBM E-score": 0.284},
      {"sequence": "ACGATCGC", "PBM E-score": -0.00383},
      {"sequence": "AGCGAACA", "PBM E-score": -0.0568},
      {"sequence": "AGGGACAA", "PBM E-score": 0.0169},
      {"sequence": "GTAAAGGA", "PBM E-score": -0.0862},
      {"sequence": "CACTTGAG", "PBM E-score": -0.256},
      {"sequence": "ACCCCCTA", "PBM E-score": -0.349},
      {"sequence": "GACCAGAA", "PBM E-score": -0.107},
      {"sequence": "GCGAGGCC", "PBM E-score": -0.00446},
      {"sequence": "ACCAACCG", "PBM E-score": 0.16},
      {"sequence": "GCCGGGCC", "PBM E-score": 0.221},
      {"sequence": "ACGAATAA", "PBM E-score": 0.0681},
      {"sequence": "GGGCCTTA", "PBM E-score": -0.0268},
      {"sequence": "AGGTCTCG", "PBM E-score": -0.0277},
      {"sequence": "GTTTCGAA", "PBM E-score": -0.219},
      {"sequence": "AGCCCCCA", "PBM E-score": -0.257},
      {"sequence": "TCCTTGCA", "PBM E-score": -0.114},
      {"sequence": "GTACGAAC", "PBM E-score": 0.172}
    ]}
  ]
}
